In PubChem BioAssay AID1240 (Sanford-Burnham Center for Chemical Genomics, 2008):
In all, about 50,000 compounds went through this assay and about 800 (1.6%) showed an effect of 50% or more. The list shows a part of the results.

target: Bcl-2-like protein 10 (Homo sapiens) (UniProt Q9HD36); test: Phenotype converters, Bcl-B/TR3 peptide binding displacement, primary biochemical FP (AID 1240); details: GST-Bcl-B / FITC-TR3 peptide fluorescence polarization; stronger effect = higher value; compound at 3.75 mg/L;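 also: 0% = Bcl-B with tracer peptide and DMSO and 100% = tracer peptide lacking Bcl-B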
Chain of UniProt Q9HD36 (Q9HD36 whole entry, looked up): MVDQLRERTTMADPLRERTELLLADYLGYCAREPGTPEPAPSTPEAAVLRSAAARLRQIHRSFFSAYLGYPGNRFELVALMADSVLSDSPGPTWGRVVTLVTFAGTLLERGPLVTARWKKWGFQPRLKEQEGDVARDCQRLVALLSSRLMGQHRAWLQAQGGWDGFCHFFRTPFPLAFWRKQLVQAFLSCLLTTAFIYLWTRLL

| Compound | displacement [%] |
| --- | --- |
| O=C1S/C(=C/c2ccc3c(c2)OCO3)C(=O)N1CN1CCCC1 | 9.4 |
| COc1ccc(OC(C)C(=O)Nc2ccc(OC)cc2OC)cc1 (stereo not given) | 11.9 |
| O=C1CSC(=S)N1c1cccc(Br)c1 | 16.6 |
| CCOCCOC(=O)c1cccc(NC(=O)Nc2ccc(Cl)cc2)c1 | 5.8 |
| C=COCCn1c2ccccc2c2cc(Br)ccc21 | -1.9 |
| COC(=O)c1ccc(NC(=O)C2C3C=CC(C4CC34)C2C(=O)O)cc1 (stereo not given) | -3.2 |
| COc1ccc(C2/C(=C(\O)c3ccccc3)C(=O)C(=O)N2CCN(C)C)cc1 (stereo not given) | 1.2 |
| COc1ccccc1-c1nc(-c2ccccn2)no1 | -11.3 |
| COc1cc(C(=S)N2CCC(C)CC2)ccc1O | -3.5 |
| COc1ccc(CC(=O)Nc2ccccc2Br)cc1OC | -2.7 |
| O=C(/C=C/c1ccc(Cl)cc1)Nc1cccc(Br)c1 | 8 |
| O=C(Nc1ccc(Cl)c(C(F)(F)F)c1)C(c1ccccc1)c1ccccc1 | 19.1 |
| CCOC(=O)C1=CN(c2ccc(C)cc2)C=C(C(=O)OCC)C1c1ccc(C)s1 | 8.8 |
| CC(=O)CCc1oc2ccc(C)cc2c1-c1ccc(Br)cc1 | -6 |
| COc1ccc(Cc2cnc(NC(C)=O)s2)cc1 | 3.9 |
| COc1ccc(/C=C2\C(=O)NC(=O)N(c3ccc(Br)cc3)C2=O)cc1[N+](=O)[O-] | -5.8 |
| COc1ccc(OC)c(/C=C/C(=O)Nc2ccc(N(C)C)cc2)c1 | 8 |
| O=C(COc1cccc2ccccc12)Nn1cnnc1 | -6.7 |
| CCOC(=O)c1ccccc1NC(=O)CC1Sc2ccc(C(F)(F)F)cc2NC1=O (stereo not given) | 9.3 |
| O=C(Nc1cccc2ccccc12)c1ccc(CN2CCOCC2)cc1 | -0.6 |
| O=C(Nc1ccc(Cl)cc1)c1nn2c(c1Cl)NC(c1ccc(Cl)cc1)CC2C(F)(F)F (stereo not given) | 11 |
| Cc1ccc(N2C(=O)/C(=C/c3cccc4ccccc34)SC2=S)cc1 | 9.4 |
| O=C(Nc1ccc2c(c1)OCO2)c1ccc2c(c1)C(=O)N(CC1CCCO1)C2=O (stereo not given) | 7.5 |
| Cc1cc(Cl)ccc1OCC(=O)NCc1ccccn1 | -4.5 |
| Cc1ccc(-c2nnc(NC(=O)Nc3ccc(Cl)c(Cl)c3)s2)cc1 | 2.4 |
| O=C(NCCOc1ccccc1F)c1ccc(F)c2ccccc12 | 11.2 |
| NNC(=O)/C(=C\c1ccc(Br)cc1)NC(=O)c1cccs1 | -7.7 |
| c1ccc2c(c1)[nH]c1nc3nnnn3nc12 | -73.7 |

| Compound | displacement [%] |
| --- | --- |
| Cc1ccc(C(=O)O)cc1NC(=O)CCC(=O)O | -1.2 |
| Cc1ccc(C)c(NC2=C(Cl)C(=O)N(c3cccc(Cl)c3)C2=O)c1 | 7 |
| COc1ccc(C(=O)Nc2ccc(N3CCOCC3)cc2)cc1 | -1 |
| COc1ccc(-c2nc(-c3cc4cc([N+](=O)[O-])c(O)cc4oc3=O)cs2)cc1 | -16.7 |
| O=C1CS/C(=N\N=C\c2cn(Cc3ccc(Cl)cc3Cl)c3ccccc23)N1 | 30 |
| COc1ccc(C(=O)NC(=S)N2CCCCCC2)cc1 | 14 |
| c1ccc(CC2=NNC(Cc3ccccc3)=NN2)cc1 | 2.8 |
| Cc1ccc(-c2ccc(OCC(=O)NCc3ccccc3)cc2)cc1 | 5 |
| CC(=O)N(c1ccccc1C)S(=O)(=O)c1ccc(Cl)cc1 | 18.6 |
| COC(=O)C(CCCC(C(=O)OC)C(=O)OC)C(=O)OC | 8.3 |
| Cc1ccc(C)c(OCC(O)CN2CCCC(C)C2)c1 (stereo not given) | -6.7 |
| CCc1ccccc1NC1=C(Cl)C(=O)N(c2ccc(C)cc2C)C1=O | 16.8 |
| C(=N\Nc1ccccc1)/c1ccc(N2CCOCC2)cc1 | 4.6 |
| COc1ccc(N2C(=O)/C(=C/c3cc4c(cc3Br)OCO4)SC2=S)cc1 | -5.1 |
| COc1ccc(OC)c(/C=N/Nc2nc3cc(C)ccc3cc2C)c1 | -5.4 |
| COc1cc(/C=C2\NC(=S)NC2=O)c([N+](=O)[O-])cc1OC | 17.8 |
| Cc1cc(-c2ccccc2)n(C(N)=S)n1 | -6.3 |
| O=C(NCc1ccccc1)c1cc2ncc(Br)cn2n1 | -6.1 |
| CCC(Sc1nc(C)cc(C)n1)C(=O)Nc1ccc([N+](=O)[O-])cc1 (stereo not given) | -15.6 |
| Cc1ccc(C)c(NCN2C(=O)S/C(=C/c3cccc(Br)c3)C2=O)c1 | 15 |
| COCCNC(=O)c1cc2n(n1)C(C(F)(F)F)CC(c1ccc(Br)cc1)N2 (stereo not given) | 2.4 |
| CCCC(=O)Nc1ccc(N2CCOCC2)c(Cl)c1 | 4.5 |
| C=CCN1C(=O)/C(=C\c2ccc(OCc3ccc(COc4ccc(C=O)cc4OC)cc3)c(OC)c2)SC1=S | -8.4 |
| N#C/C(=C\c1c[nH]c2ccccc12)c1nn(CCO)c(N)c1C#N | -3.5 |
| O=C(CN(c1ccc(F)cc1)S(=O)(=O)c1ccccc1)Nc1cccc2ccccc12 | -4.4 |
| Cc1ccc(Nc2cc(C)c3ccccc3n2)c(C)c1 | 9.4 |
| NC(=O)C1(N2CCCCC2)CCN(C(=S)Nc2ccc(Cl)cc2)CC1 | -15.7 |
